{
  "source": "the DeepSol protein solubility set",
  "assay": "soluble on expression in E. coli; label from the status in PepcDB or PDB records",
  "data": [
    {"sequence": "HHHHHHMNTINIAKNDFSDIELAAIPFNTLADHYGERLAREQLALEHESYEMGEARFRKMFERQLKAGEVADNAAAKPLITTLLPKMIARINDWFEEVKAKRGKRPTAFQFLQEIKPEAVAYITIKTTLACLTSADNTTVQAVASAIGRAIEDEARFGRIRDLEAKHFKKNVEEQLNKRVGHVYKKAFMQVVEADMLSKGLLGGEAWSSWHKEDSIHVGVRCIEMLIESTGMVSLHRQNAGVVGQDSETIELAPEYAEAIATRAGALAGISLMFQPCVVPPKPWTGITGGGYWANGRRPLALVRTHSKKALMRYEDVYMPEVYKAINIAQNTAWKINKKVLAVANVITKWKHCPVEDIPAIEREELPMKPEDIDMNPEALTAWKRAAAAVYRKDKARKSRRISLEFMLEQANKFANHKAIWFPYNMDWRGRVYAVSMFNPQGNDMTKGLLTLAKGKPIGKEGYYWLKIHGANCAGVDKVPFPERIKFIEENHENIMACAKSPLENTWWAEQDSPFCFLAFCFEYAGVQHHGLSYNCSLPLAFDGSCSGIQHFSAMLRDEVGGRAVNLLPSETVQDIYGIVAKKVNEILQADAINGTDNEVVTVTDENTGEISEKVKLGTKALAGQWLAYGVTRSVTKRSVMTLAYGSKEFGFRQQVLEDTIQPAIDSGKGLMFTQPNQAAGYMAKLIWESVSVTVVAAVEAMNWLKSAAKLLAAEVKDKKTGEILRKRCAVHWVTPDGFPVWQEYKKPIQTRLNLMFLGQFRLQPTINTNKDSEIDAHKQESGIAPNFVHSQDGSHLRKTVVWAHEKYGIESFALIHDSFGTIPADAANLFKAVRETMVDTYESCDVLADFYDQFADQLHESQLDKMPALPAKGNLNLRDILESDFAFA", "values": [
      {"measurement": "soluble on expression in E. coli", "result": "soluble"}
    ]}
  ]
}
